According to PubChem BioAssay AID192 (DTP/NCI, 2004):
Inconclusive results and toxic doses are left out. Some entries of the source have several records that differ or are many. The list is limited to them. An entry can have further records. Results that share an entry do not match, cause unknown; dose, time, organism, isomer or construct need not be as stated for each record.

Tested on: BDF1 mice, B16 melanoma ip, median survival T/C
Experiment: NCI In Vivo Anticancer Drug Screen. Data for tumor model B16 Melanoma (intraperitoneal) in B6D2F1 (BDF1) mice
Conditions: endpoint: median survival time, higher = longer survival
Method: The antitumor activity of compounds was measured in mice bearing transplantable tumors. Survival or tumor size were measured and the results are expressed as the measurement made in the treated group (T) divided by the measurement made in the vehicle treated control group (C). The tumor model used in this assay is B16 Melanoma (intraperitoneal) in B6D2F1 (BDF1) mice

Cc1cnc(/C=N\NC(N)=S)c2cccc(N)c12
T/C (dose: 50.0 mg/kg/injection, schedule: Q01DX009 (ip), vehicle: saline with Tween-80): 95 % of control and 150 % of control

COc1cc(NS(C)(=O)=O)ccc1Nc1c2ccccc2nc2ccccc12
T/C (dose: 1.0 mg/kg/injection, schedule: Q01DX009 (ip), vehicle: other): 120 % of control and 161 % of control
T/C (dose: 4.0 mg/kg/injection, schedule: Q04DX003 (ip), vehicle: other): 121 % of control and 154 % of control

CC(=O)O[C@H]1C(=O)O[C@@H]2C[C@H]3C(C)=CC(=O)[C@@H](O)[C@]3(C)[C@H]3[C@@]4(O)OC[C@]32[C@@H]1[C@@H](C)[C@H]4O
T/C (dose: 3.0 mg/kg/injection, schedule: Q01DX009 (ip), vehicle: saline): 104 % of control and 176 % of control
T/C (dose: 6.0 mg/kg/injection, schedule: Q01DX009 (ip), vehicle: saline): 115 % of control and 152 % of control

CC1OC(=O)C(C(C)C)NC(=O)C(C(C)C)OC(=O)C(C(C)C)NC(=O)C(C)OC(=O)C(C(C)C)NC(=O)C(C(C)C)OC(=O)C(C(C)C)NC(=O)C(C)OC(=O)C(C(C)C)NC(=O)C(C(C)C)OC(=O)C(C(C)C)NC1=O (configuration not stated)
T/C (dose: 0.05 mg/kg/injection, schedule: Q01DX009 (ip), vehicle: DMSO): 109 % of control and 156 % of control
T/C (dose: 0.1 mg/kg/injection, schedule: Q01DX009 (ip), vehicle: DMSO): 114 % of control and 179 % of control
